Measurements published in PubChem BioAssay AID1159614 (National Center for Advancing Translational Sciences (NCATS), 2016).
About 65 (0.1%) of roughly 45,000 compounds were called active. Calls come from the whole dose curve; as a rule, active = well fitted activation curve with a large enough effect; inconclusive = small, poorly fitted or top-dose-only effect; inactive = no such curve, though single readings can be large or run the other way. This is one part of the list.

molecular target: Galactocerebrosidase (Homo sapiens) (UniProt P54803); assay: A Novel Cell-Based Assay to Identify Small Molecules for B -Galactocerebrosidase; details: 145M-Twi-hGALC-G270D cells (Twitcher mouse brain line with human GALC G270D), HMU-beta-Gal fluorescence, 48 h; series mostly up to 57.5 µM; activation: at the top concentration; note: 0% is about no effect; nearly all actives have a fitted effect of over 65% in size
Summary of the method: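 Brain-derived Twitcher mouse 145M-Twi cells stably expressing human GALC-G270D or wild-type GALC, treated live, then residual GALC activity read by fluorescence of HMU-b-Gal substrate (0.1 mM final) in citrate-phosphate buffer pH 5.2 with sodium taurocholate. Signal increase indicates enhancement.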

Chain of UniProt P54803 (P54803 whole entry, looked up): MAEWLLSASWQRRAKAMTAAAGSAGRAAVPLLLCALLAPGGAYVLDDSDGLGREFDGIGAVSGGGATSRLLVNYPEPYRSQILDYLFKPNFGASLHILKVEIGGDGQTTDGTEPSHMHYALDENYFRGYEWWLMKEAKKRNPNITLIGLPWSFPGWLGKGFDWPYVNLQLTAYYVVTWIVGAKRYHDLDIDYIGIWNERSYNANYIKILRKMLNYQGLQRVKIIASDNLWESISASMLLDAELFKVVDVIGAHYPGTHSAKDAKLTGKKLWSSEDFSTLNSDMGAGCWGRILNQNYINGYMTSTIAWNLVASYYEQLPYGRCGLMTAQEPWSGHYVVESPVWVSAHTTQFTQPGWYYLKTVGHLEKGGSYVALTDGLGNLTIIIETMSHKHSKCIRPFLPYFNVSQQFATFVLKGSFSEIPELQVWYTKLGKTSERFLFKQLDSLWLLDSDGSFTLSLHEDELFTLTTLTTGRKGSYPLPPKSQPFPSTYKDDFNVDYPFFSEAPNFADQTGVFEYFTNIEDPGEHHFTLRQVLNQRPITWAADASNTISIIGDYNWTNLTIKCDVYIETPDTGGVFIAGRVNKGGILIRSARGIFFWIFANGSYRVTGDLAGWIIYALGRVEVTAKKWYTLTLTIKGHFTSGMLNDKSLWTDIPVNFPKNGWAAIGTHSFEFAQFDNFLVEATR

activation, inactive:
CC(=O)c1ccc(N2CCN(C(=O)C3CCN(S(=O)(=O)c4c(C)noc4/C=C/c4ccccc4F)CC3)CC2)cc1 -11.3%
O=c1c2c3c(sc2n(Cc2ccc(F)cc2Cl)c(=O)n1-c1ccc(Cl)cc1)CCC3 -11.4%
Cc1ccc(C)c(N2CCN(c3nc4ccccc4c(=O)n3-c3ccccc3)CC2)c1 -3.11%
CC(=O)Nc1ccc(S(=O)(=O)NCCS(=O)(=O)N2CCN(c3ccccc3F)CC2)cc1 -16.8%
COc1cccc(Nc2nc3ccc(C(=O)c4ccccc4)cc3n3c(C)nnc23)c1 -2.24%
COc1ccc(NC(=O)c2ccc(NC(=O)CCS(=O)(=O)c3cccs3)cc2)cc1 -8.03%
CCOc1ccc2c(c1)c(=O)c(S(=O)(=O)c1ccc(Cl)cc1)cn2Cc1ccccc1C -7.61%
Cc1ccccc1OCc1ccc(-c2nc(C#N)c(N3CCC(C(N)=O)CC3)o2)o1 -11.3%
CCOc1ccc2cc(-c3nnc(Nc4ccc(C)cc4)s3)c(=O)oc2c1 -7.07%
CCOC(=O)c1c(S(=O)(=O)NCC(=O)N(C)c2ccc(C)cc2)c(C)n(C)c1C 1.91%
Cc1ccccc1NS(=O)(=O)c1nnc(NC(=O)c2ccco2)s1 -12.1%
Cc1ccccc1-c1nc(SCC(=O)N(C)c2ccccc2)c2c(=O)n(C)c(=O)n(C)c2n1 -14%
Cc1ccc(C)c(CN2C(=O)c3ccccc3S(=O)c3ccc(C(=O)NCCC4=CCCCC4)cc32)c1 (stereo unspecified) -13%
COc1ccc(CCC(=O)NCCc2csc(-c3cccc(C)c3)n2)cc1 -15.5%
O=C(Nc1ccc(Cl)c(-c2nc3cc(Cl)ccc3o2)c1)c1cc2ccccc2o1 0.178%
CCCNC(=O)c1cnc2c(-c3ccc(OCC)c(OCC)c3)c(C)nn2c1-c1ccccc1 -15%
COc1cc(NC(=O)CC(c2cccs2)N2Cc3ccccc3C2=O)cc(OC)c1OC (stereo unspecified) -25.2%
CCc1ccccc1N1C(=O)N(CC(=O)c2ccc(OC)cc2)c2ccccc2S1(=O)=O -12.8%
CCc1cccc(NC(=O)Cn2nc3c4cc(F)ccc4n(Cc4cccc(C)c4)cc-3c2=O)c1 -8.27%
COC(=O)CCN(C(=O)C1CCN(S(=O)(=O)c2c(C)noc2/C=C/c2ccccc2F)CC1)c1ccccc1 -14%
CC(C)Oc1ccc(C(=O)Nc2nonc2-c2ccc(OC(C)C)cc2)cc1 -20.4%
CCN(CCCNC(=O)Cn1ncc2c([nH]c3ccc(C)cc32)c1=O)Cc1ccccc1 -3.14%
COc1ccc(NC(=O)C(=O)NCc2ccco2)cc1 2.07%
CC(C)n1c(=N)c(C(=O)NC2CCCCC2)cc2c(=O)n3ccccc3nc21 -17.1%
Clc1cccc(CSc2nnc(C3CCNCC3)o2)c1 2.19%
CCSc1nn(CC(=O)Nc2cccc(Cl)c2)c(N)c1S(=O)(=O)c1ccc(OC)cc1 -38.9%
